# Test results from publication PMC12820563, “FoxP3 forms a head-to-head dimer in vivo and stabilizes its multimerization on adjacent microsatellites”.
# The other results are listed elsewhere or left out.
# Target: T1, MBP-FoxP1dN (Mus musculus, UniProt P58462 326-579)
# T1 sequence: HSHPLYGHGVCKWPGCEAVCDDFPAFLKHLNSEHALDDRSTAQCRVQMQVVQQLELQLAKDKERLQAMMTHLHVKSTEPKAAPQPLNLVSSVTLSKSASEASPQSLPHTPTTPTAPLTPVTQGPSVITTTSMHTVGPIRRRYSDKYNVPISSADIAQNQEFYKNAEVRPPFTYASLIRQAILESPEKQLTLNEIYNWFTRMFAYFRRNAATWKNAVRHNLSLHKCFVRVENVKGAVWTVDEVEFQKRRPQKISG
# Experiment: PD-seq (MBP pull-down with sequencing); 20 mM Tris-HCl pH 7.5, 100 mM NaCl, 1.5 mM MgCl2, 0.4 uM protein, 0.1 uM dsDNA library, 30 min, room temperature, amylose pull-down; high values mean tight binding
# Settings: protein: recombinant; tags: His6-MBP; chain copies: 2; dsDNA, one strand shown
# Summary of the method: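 In Tris pH 7.5 buffer with NaCl and MgCl2, 0.4 µM His6-MBP-tagged mouse FoxP3 or FoxP1 fragment lacking the N-terminus, from E. coli, met 0.1 µM Klenow-filled double-stranded degenerate DNA library for 30 min at room temperature. Three washes on amylose resin followed capture of the complexes, then proteinase K release of DNA, PCR barcoding and Illumina sequencing. Binding is taken as pooled-replicate reads-per-million enrichment of pull-down relative to input.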
row,Sequence,binding signal
1,GATGATTGTTCTCCCAGCTGATGAATTATTATACTCGAGTAAACAAATTTTCCTAATCTTTCTGTTCAAGCGCCATCTAC,1.17 RPM ratio (pull-down/input)
2,GATGATTGTTCTCCCAGCTGATGAATTTTCCATATCGAGTAAACAAATTTTCCTAATCTTTCTGTTCAAGCGCCATCTAC,0.875 RPM ratio (pull-down/input)
3,GATGATTGTTCTCCCAGCTGATGAATTCAACCCCTCGAGTAAACAAATTTTCCTAATCTTTCTGTTCAAGCGCCATCTAC,0.806 RPM ratio (pull-down/input)
4,GATGATTGTTCTCCCAGCTGATGAATTGTATGTTTCGAGTAAACAAATTTTCCTAATCTTTCTGTTCAAGCGCCATCTAC,1.58 RPM ratio (pull-down/input)
5,GATGATTGTTCTCCCAGCTGATGAATTCCGCTGCTCGAGTAAACAAATTTTCCTAATCTTTCTGTTCAAGCGCCATCTAC,0.807 RPM ratio (pull-down/input)
6,GATGATTGTTCTCCCAGCTGATGAATTGGAATGTTCGAGTAAACAAATTTTCCTAATCTTTCTGTTCAAGCGCCATCTAC,0.856 RPM ratio (pull-down/input)
7,GATGATTGTTCTCCCAGCTGATGAATTGCCCGGATCGAGTAAACAAATTTTCCTAATCTTTCTGTTCAAGCGCCATCTAC,0.853 RPM ratio (pull-down/input)
8,GATGATTGTTCTCCCAGCTGATGAATTGTTCCCCTCGAGTAAACAAATTTTCCTAATCTTTCTGTTCAAGCGCCATCTAC,1.05 RPM ratio (pull-down/input)
9,GATGATTGTTCTCCCAGCTGATGAATTCCCACGTTCGAGTAAACAAATTTTCCTAATCTTTCTGTTCAAGCGCCATCTAC,0.833 RPM ratio (pull-down/input)
10,GATGATTGTTCTCCCAGCTGATGAATTCGAGGTCTCGAGTAAACAAATTTTCCTAATCTTTCTGTTCAAGCGCCATCTAC,0.83 RPM ratio (pull-down/input)
11,GATGATTGTTCTCCCAGCTGATGAATTGTCCGCCTCGAGTAAACAAATTTTCCTAATCTTTCTGTTCAAGCGCCATCTAC,0.977 RPM ratio (pull-down/input)
12,GATGATTGTTCTCCCAGCTGATGAATTCGGTCCCTCGAGTAAACAAATTTTCCTAATCTTTCTGTTCAAGCGCCATCTAC,0.768 RPM ratio (pull-down/input)
13,GATGATTGTTCTCCCAGCTGATGAATTCGGCACTTCGAGTAAACAAATTTTCCTAATCTTTCTGTTCAAGCGCCATCTAC,0.87 RPM ratio (pull-down/input)
14,GATGATTGTTCTCCCAGCTGATGAATTTCAATATTCGAGTAAACAAATTTTCCTAATCTTTCTGTTCAAGCGCCATCTAC,0.922 RPM ratio (pull-down/input)
15,GATGATTGTTCTCCCAGCTGATGAATTCTAATGGTCGAGTAAACAAATTTTCCTAATCTTTCTGTTCAAGCGCCATCTAC,0.846 RPM ratio (pull-down/input)
16,GATGATTGTTCTCCCAGCTGATGAATTCTGTTGGTCGAGTAAACAAATTTTCCTAATCTTTCTGTTCAAGCGCCATCTAC,1.5 RPM ratio (pull-down/input)

row,Sequence,binding signal
1,GATGATTGTTCTCCCAGCTGATGAATTTGAGGACTCGAGTAAACAAATTTTCCTAATCTTTCTGTTCAAGCGCCATCTAC,0.703 RPM ratio (pull-down/input)
2,GATGATTGTTCTCCCAGCTGATGAATTAAGTTGATCGAGTAAACAAATTTTCCTAATCTTTCTGTTCAAGCGCCATCTAC,1.17 RPM ratio (pull-down/input)
3,GATGATTGTTCTCCCAGCTGATGAATTTGCGATTTCGAGTAAACAAATTTTCCTAATCTTTCTGTTCAAGCGCCATCTAC,1.07 RPM ratio (pull-down/input)
4,GATGATTGTTCTCCCAGCTGATGAATTTGCCGACTCGAGTAAACAAATTTTCCTAATCTTTCTGTTCAAGCGCCATCTAC,0.868 RPM ratio (pull-down/input)
5,GATGATTGTTCTCCCAGCTGATGAATTAGGCCGCTCGAGTAAACAAATTTTCCTAATCTTTCTGTTCAAGCGCCATCTAC,0.851 RPM ratio (pull-down/input)
6,GATGATTGTTCTCCCAGCTGATGAATTCGGTCCGTCGAGTAAACAAATTTTCCTAATCTTTCTGTTCAAGCGCCATCTAC,0.782 RPM ratio (pull-down/input)
7,GATGATTGTTCTCCCAGCTGATGAATTATGACTGTCGAGTAAACAAATTTTCCTAATCTTTCTGTTCAAGCGCCATCTAC,0.934 RPM ratio (pull-down/input)
8,GATGATTGTTCTCCCAGCTGATGAATTTGTGGGTTCGAGTAAACAAATTTTCCTAATCTTTCTGTTCAAGCGCCATCTAC,0.976 RPM ratio (pull-down/input)
9,GATGATTGTTCTCCCAGCTGATGAATTAACCAGATCGAGTAAACAAATTTTCCTAATCTTTCTGTTCAAGCGCCATCTAC,0.853 RPM ratio (pull-down/input)
10,GATGATTGTTCTCCCAGCTGATGAATTAACTGGATCGAGTAAACAAATTTTCCTAATCTTTCTGTTCAAGCGCCATCTAC,0.841 RPM ratio (pull-down/input)
11,GATGATTGTTCTCCCAGCTGATGAATTACACGTCTCGAGTAAACAAATTTTCCTAATCTTTCTGTTCAAGCGCCATCTAC,1.17 RPM ratio (pull-down/input)
12,GATGATTGTTCTCCCAGCTGATGAATTAATCAACTCGAGTAAACAAATTTTCCTAATCTTTCTGTTCAAGCGCCATCTAC,1.1 RPM ratio (pull-down/input)
13,GATGATTGTTCTCCCAGCTGATGAATTTAATCGTTCGAGTAAACAAATTTTCCTAATCTTTCTGTTCAAGCGCCATCTAC,0.959 RPM ratio (pull-down/input)
14,GATGATTGTTCTCCCAGCTGATGAATTCGGGGGGTCGAGTAAACAAATTTTCCTAATCTTTCTGTTCAAGCGCCATCTAC,0.806 RPM ratio (pull-down/input)
15,GATGATTGTTCTCCCAGCTGATGAATTGGAGTTCTCGAGTAAACAAATTTTCCTAATCTTTCTGTTCAAGCGCCATCTAC,0.855 RPM ratio (pull-down/input)
16,GATGATTGTTCTCCCAGCTGATGAATTTCCATAATCGAGTAAACAAATTTTCCTAATCTTTCTGTTCAAGCGCCATCTAC,1.21 RPM ratio (pull-down/input)
